Test results published in the supplement of paper PMC8728848.
The list shows a part of the results.

Tests used:
Test in all cases: glycan array binding signal (z-score within array); higher = stronger binding
Conditions in all cases: glycan notation: IUPAC condensed, linker removed; mutation: E227A
GalNAc(b1-4)GlcNAc = target: GalNAc(b1-4)GlcNAc
Outline: (§1)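 Glycan array binding is given as a within-array Z-score, which can be read as non-binding when negative. The arrays, 3228 of them, came from the Consortium for Functional Glycomics database and were retained only where the protein sequence was available. Z-scores were averaged across arrays of the same protein sequence at different concentrations or buffers and across linkers.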

[1] = target: GalNAc(b1-4)GlcNAc(b1-2)Man
Outline: as §1

[2] = target: GalNAc(b1-4)GlcNAc(b1-2)Man(a1-3)[GalNAc(b1-4)GlcNAc(b1-2)Man(a1-6)]Man(b1-4)GlcNAc(b1-4)GlcNAc
Outline: as §1

[3] = target: GalNAc(b1-4)GlcNAc(b1-3)GalNAc(b1-4)GlcNAc
Outline: as §1

GalNAc(b1-4)GlcNAc6S = target: GalNAc(b1-4)GlcNAc6S
Outline: as §1

GalNAc(b1-6)GalNAc = target: GalNAc(b1-6)GalNAc
Outline: as §1

GalNAc3S(b1-4)GlcNAc = target: GalNAc3S(b1-4)GlcNAc
Outline: as §1

GalNAc3S(b1-4)GlcNAc3S = target: GalNAc3S(b1-4)GlcNAc3S
Outline: as §1

[4] = target: GalNAc3S(b1-4)[Fuc(a1-3)]GlcNAc
Outline: as §1

GalNAc4S6S(b1-4)GlcNAc = target: GalNAc4S6S(b1-4)GlcNAc
Outline: as §1

GalNAc6S(b1-4)GlcNAc = target: GalNAc6S(b1-4)GlcNAc
Outline: as §1

Glc(a1-4)Glc = target: Glc(a1-4)Glc
Outline: as §1

[5] = target: Glc(a1-4)Glc(a1-4)Glc(a1-4)Glc
Outline: as §1

Glc(a1-6)Glc(a1-6)Glc = target: Glc(a1-6)Glc(a1-6)Glc
Outline: as §1

[6] = target: Glc(a1-6)Glc(a1-6)Glc(a1-6)Glc
Outline: as §1

Glc(b1-4)Glc = target: Glc(b1-4)Glc
Outline: as §1

Glc(b1-6)Glc = target: Glc(b1-6)Glc
Outline: as §1

GlcA(b1-3)Gal = target: GlcA(b1-3)Gal
Outline: as §1

GlcA(b1-3)GlcNAc = target: GlcA(b1-3)GlcNAc
Outline: as §1

GlcA(b1-6)Gal = target: GlcA(b1-6)Gal
Outline: as §1

[7] = target: GlcA3S(b1-3)Gal(b1-4)GlcNAc(b1-2)Man
Outline: as §1

[8] = target: GlcA3S(b1-3)Gal(b1-4)GlcNAc(b1-3)Gal(b1-4)Glc
Outline: as §1

[9] = target: GlcNAc(a1-3)Gal(b1-4)GlcNAc
Outline: as §1

[10] = target: GlcNAc(a1-4)Gal(b1-3)GlcNAc
Outline: as §1

[11] = target: GlcNAc(a1-4)Gal(b1-4)GalNAc
Outline: as §1

[12] = target: GlcNAc(a1-4)Gal(b1-4)GlcNAc
Outline: as §1

[13] = target: GlcNAc(a1-4)Gal(b1-4)GlcNAc(b1-3)Gal(b1-4)Glc
Outline: as §1

[14] = target: GlcNAc(a1-4)Gal(b1-4)GlcNAc(b1-3)Gal(b1-4)GlcNAc
Outline: as §1

[15] = target: GlcNAc(a1-4)Gal(b1-4)GlcNAc(b1-3)Gal(b1-4)GlcNAc(b1-3)Gal(b1-4)GlcNAc
Outline: as §1

[16] = target: GlcNAc(a1-4)Gal(b1-4)GlcNAc(b1-3)Gal(b1-4)[Fuc(a1-3)]GlcNAc(b1-3)Gal(b1-4)[Fuc(a1-3)]GlcNAc
Outline: as §1

B1: Epa1-NP-mutant-E227A (Candida glabrata), Q6VBJ0 (protein)
chain: MILNPALFLNKCVCIYTTLILLLLTNGGYATSSNDISLASKDPTTFPLGCSPDITTPKKGLSMELYSYDFRKKGSYPCWDAAYLDPNYPRTGYKSHRLLAKVDGVTGNINFYYHATKGCTPQLGHLPASYNYPKPLTMTNFTMLLYGYFRPKVTGFHTFTISADDLLFVNFGAGNAFDCCRRDSSADHFGNYQAYAIWGSKTAKDELTVHLDAGVYYPIRLFYNNRAYDGALSFTFKTESNENTVSDFSEYFFSLDDTEEGCPGLISYDSSCASVKTSKIIGIDYHTETPNENLVPITKTIYHLGIPCTGTTTTPLCGSGFYDPLANKCVTINTSSTSSVTKTTSHTTSKEVSFHSSISSQKTLIPKSIPSPYGPIKSQSIPTEMETSSEISSSEYAFSDVISTPSHSPYTKKHSSLNSSSYTSTVIHSLTSYSISQGIFSTSLSEQNITSKSSTDKFSTATSMSNNITQSSIIISQFSTNNENYTTTSMHTSSDKISTETLNNSISTTTSILFSNSSTILKNNTTIISSDKDTHYHPVNPTIVCSTNKTEIICASITQPSISNSNNHWSSSVLKFNSTTVRSTLPSSAGSNETSINVPFSSSTESNTSTSSTSTSNSKMVRSTLPSSAGSNETSISVPFSSSTESNTSTSSTSTSNSKMVRSTLPSSAGSNETSINVPFSSSTESNTSTSSTSTSNSKTVRSTPFSSAGIIMTSLSQRNNKSASSYASSNSKCYNTADSCRKVHSTPSYLLTSSYTSEGVDYDCSLVSTKLKINDTNCVNNKHTTKSCLKTSVTTTIPTLEIKTARKSSSNTIGLHSYPTSSPNKSISSAPIIGYISSFKTIKTASPSYQTSDLTTITTITSLNNPGSTAVENTHESNDKSRKTSSNDISSKHSVIKETKDAVESSNKSHQTNTLKCSSIIIASSSHNSYESLGGTTLTLTLSKVYSPQNNDTLPFLEISEVNPSRTVLPESSKMMQYLTSTEERNKTARNTIATNIVSISTFHFEGEGNAIRMGYTQLLLMLIGIIVMNIGT
glycan array binding signal (z-score) (GalNAc(b1-4)GlcNAc): -0.201 | glycan array binding signal (z-score) [1]: -0.185 | glycan array binding signal (z-score) [2]: -0.201 | glycan array binding signal (z-score) [3]: -0.18 | glycan array binding signal (z-score) (GalNAc(b1-4)GlcNAc6S): -0.184 | glycan array binding signal (z-score) (GalNAc(b1-6)GalNAc): -0.216 | glycan array binding signal (z-score) (GalNAc3S(b1-4)GlcNAc): -0.193 | glycan array binding signal (z-score) (GalNAc3S(b1-4)GlcNAc3S): -0.177 | glycan array binding signal (z-score) [4]: -0.197 | glycan array binding signal (z-score) (GalNAc4S6S(b1-4)GlcNAc): -0.197 | glycan array binding signal (z-score) (GalNAc6S(b1-4)GlcNAc): -0.199 | glycan array binding signal (z-score) (Glc(a1-4)Glc): -0.197 | glycan array binding signal (z-score) [5]: -0.173 | glycan array binding signal (z-score) (Glc(a1-6)Glc(a1-6)Glc): -0.201 | glycan array binding signal (z-score) [6]: -0.197 | glycan array binding signal (z-score) (Glc(b1-4)Glc): -0.192 | glycan array binding signal (z-score) (Glc(b1-6)Glc): -0.197 | glycan array binding signal (z-score) (GlcA(b1-3)Gal): -0.191 | glycan array binding signal (z-score) (GlcA(b1-3)GlcNAc): -0.196 | glycan array binding signal (z-score) (GlcA(b1-6)Gal): 0.587 | glycan array binding signal (z-score) [7]: -0.203 | glycan array binding signal (z-score) [8]: -0.218 | glycan array binding signal (z-score) [9]: -0.198 | glycan array binding signal (z-score) [10]: -0.184 | glycan array binding signal (z-score) [11]: -0.211 | glycan array binding signal (z-score) [12]: -0.198 | glycan array binding signal (z-score) [13]: -0.194 | glycan array binding signal (z-score) [14]: -0.195 | glycan array binding signal (z-score) [15]: -0.192 | glycan array binding signal (z-score) [16]: -0.146
